Measurements reported in the RNAGym collection of RNA variant scans (doi:10.7554/elife.90254).
The source gives no read counts; variants with many changes may rest on few reads.

B1: LINE1-mini (parent)
chain: GGCAGAGCUCAACACAGCGUGGCAAAGUGGCUGUGGCUAGACUGCC

Variants of: B1
Experiment: self-cleavage, relative activity (ratio to wild type); higher = more cleavage; in vitro, sequencing; the parent is a self-cleaving ribozyme
GGCCGAGCUAAACACAGCGUGCCAAAGUGGCUGUGACUCGACUGCC gave a self-cleavage of 0.02. In the case of GGCCGAGCUAAACACAGCGUGGCAAAGUGGCUUUGGCAAGACUGCC, the self-cleavage is reported as 0.05. GGCCGAGCUGAACACUGCGUUGCAAAGUGGCUGUGGCUAGAAUGCC showed a self-cleavage of 0.02. In the case of GGCCGAGCUGAAUACAGCGUGGCACAGUGGCUUUGGCUAGACUGCC, the self-cleavage is reported as 0.01. Work on GGCCGAGCUGAACACAGCGUGGAAAACCGACUGUGGCUAGACUGCC yielded a self-cleavage of 0.01. GGCCGAGCUGAACACAGCGUGGCAAAGUGGCUGUGGCAAGACUGCC gave a self-cleavage of 0. In the case of GGCCGAGCUUAACACAGCGUGUCAAAGUGGCUGUGGCUAGGCAGCC, the self-cleavage is reported as 0.03. For GGCCGAGCUUAACACAGCGUGGCAAAGUGGCUUUGGCUAGACUGCC, the self-cleavage was 0.02. Work on GGCCGAGCUCAAAACAGUGUGGCAUAGUGACUGUGGCUAGACUGCC yielded a self-cleavage of 0.09. GGCCGAGCUCAAAACACGGCGGCAAAGAGGCUGUGGCCAGACUGCC showed a self-cleavage of 0.08. In the case of GGCCGAGCUCAAAACAGCGUGCCAAAGUGGCUGUGGCUAGACUGCC, the self-cleavage is reported as 0.02. With GGCCGAGCUCAAAACAGCGUGGCAAAUUGGUUGUGGCUAGAGUGCC the self-cleavage was 0.04. GGCCGAGCUCAAAACAGCGUGGCAAAGUCGCUGUGGCUAGACUGCA gave a self-cleavage of 0.04. Work on GGCCGAGCUCAAGGCAGCGUGGCAAAAUGGCUGUGGCUAGACUGCC yielded a self-cleavage of 0.16. Variant GGCCGAGCUCAAGACAGCGUGGCAUAGUGGCUGUAGUUAGACUGCC has a self-cleavage of 0.06. For GGCCGAGCUCAAGACAGCGUGUCAAAGUGGCUCUGGCUAGACUGCC, the self-cleavage was 0.02. GGCCGAGCUCAAGACAGCGAGGCAAAGUGGCUGUGGCUAGACUGCC gave a self-cleavage of 0.02. For GGCCGAGCUCAAUGCAGCGUGGCAAAGUGGCUGUGGCUAGCCUGCC, the self-cleavage was 0.02. With GGCCGAGCUCAAUACAGGGUGGCAAAGUGGCGGAGGCUAGACUGCC the self-cleavage was 0.36. For GGCCGAGCUCAAUACAGCGUGGGAAAGUGGCUGUGGCUAGACUACC, the self-cleavage was 0.5. For GGCCGAGCUCAACAAAGCGUGGCAGAGUGGCUGUUGCUAGACUGAC, the self-cleavage was 0.07. Variant GGCCGAGCUCAACAAAGCGUGGCAAUGUGGCUGUGGCUAGACUGCC has a self-cleavage of 0.06. Variant GGCCGAGCUCAACAAAGCGUGGCAAAGUGGCUGUAGCUAGACUGAC has a self-cleavage of 0.03. Work on GGCCGAGCUCAACAUGGCGUGGCAAAGUGGCUGUGGCUAGCCUGCC yielded a self-cleavage of 0.03. Work on GGCCGAGCUCAACACAGAGUGGCACAGUGGCUGUGUCUAGAGUGCC yielded a self-cleavage of 0.13. Work on GGCCGAGCUCAACACAGAAUGGCAAAGUGGGUGUGGCUAGACUGCC yielded a self-cleavage of 0.03. GGCCGAGCUCAACACAGAAUGGCAAAGUGGCUGUGGCUAGACUCCC gave a self-cleavage of 0.02. Work on GGCCGAGCUCAACACAGGGUGGCAAAGUGGCUGUGGCUAGAGCGCC yielded a self-cleavage of 0.01. With GGCCGAGCUCAACACAGGGUGAGAAAGUGGCUGUGGCUAGACUGCC the self-cleavage was 0.02. In the case of GGCCGAGCUCAACACAGUGUGGGAAAGUGGCAGUGGUUAGACUGCC, the self-cleavage is reported as 0.09. GGCCGAGCUCAACACAGUGUGGCAAAGUGUCUGUGGCUAGACUGCC gave a self-cleavage of 0.23. Work on GGCCGAGCUCAACACAGUGUGGCAAAGUGGCUGUGGCUAGACUACC yielded a self-cleavage of 0.09. Work on GGCCGAGCUCAACACAGCGUGGAAAGGUGGCUGUGUAUAGACUGCC yielded a self-cleavage of 0.56. GGCCGAGCUCAACACAGCGUGGAAAAGUGGCUGUGUCUAGACUGCC gave a self-cleavage of 0.06. In the case of GGCCGAGCUCAACACAGCGUGGGAGAGGAGCGGUGGCUAGACGGUC, the self-cleavage is reported as 0. GGCCGAGCUCAACACAGCGUGGGAAUGUGGCUGUGGCUAGACUGCC gave a self-cleavage of 0.18. GGCCGAGCUCAACACAGCGUGGGAAAGUGGCUGUGGUUAGACUGCC gave a self-cleavage of 0.02. With GGCCGAGCUCAACACAGCGUGGCAAAGUGGAUGUGGCUAGACUUCC the self-cleavage was 0.08. GGCCGAGCUCAACACAGCGUGGCAAAGUGGGUGUGGCUUGACUGCC gave a self-cleavage of 0.07. For GGCCGAGCUCAACACAGCGUGGCAAAGUGGCUGUGGAUAGACUGCU, the self-cleavage was 0.19. With GGCCAAGCUCAACGCAGCAUUGUAGAGUGGCUGUGGCUGGACUGCC the self-cleavage was 0.03. In the case of GGCCAAGCUAAACACAGCGUGGCAAUGUGGCUGUGGCUAGACUGCC, the self-cleavage is reported as 0. Work on GGCCAAACUCAUCACAGCAUGGCAAAGUGGCGGUGGCUGGACUGCC yielded a self-cleavage of 0.24. With GGCCCAACUCAACACAGCGUGGCAAAGUGGCUGUGGCUAGACUGCC the self-cleavage was 0.25. Variant GGCCCAGCUCAACACAUCGUGGCAAAGUGGCAGUGGCUAGACUGCC has a self-cleavage of 0.1. GGCCCAGCUCAACACAGCGUCAGAAAGUGGCUGUGCCUAGACUGCC gave a self-cleavage of 0.03. GGCCCAGCUCAACACAGCGUGGCAAAGUAGCUGUGGCUAGACUGCC gave a self-cleavage of 0.09. GGCCUGGCUCAACACAGCGGGGCAAAGUGGCUGUGGCUAGACUGCC showed a self-cleavage of 0.03. With GGCCUAGCUCGACACAUCGUGGCAAACUGGGUGUGGCUAGACUGCC the self-cleavage was 0.01. With GGCCUAGGUCAACACAGCGUGGCAACGUGGCUGUGGCUCUACUGCC the self-cleavage was 0.02. GGCCUAGCUAAACACAGCGUGGCAAAGUGGAUGUAGCUAGACUGCC gave a self-cleavage of 0.02. For GGCCUAGCUCAACACACCGUUGCAAAGUGGCUGUGCCUAGACUGCC, the self-cleavage was 0.04. With GGCCUAGCUCAACACAUCGUGGCAAAGUGGCUGUCACUAGACCGCC the self-cleavage was 0.02. With GGCCGAACUCAACACAGCGUGGCCAAGUGGCUGUGGCUAGACUGCG the self-cleavage was 0.25. Work on GGCCGAAUUCAACACAGCGUGGCAAAGUGGAUGUGGCUAGACUGCC yielded a self-cleavage of 0.35. With GGCCGAACUCAACAUAGCGUGGCAAAGUGGCUGUGGCUAGACUGCC the self-cleavage was 0.24.
